# Measurements as given in PubChem BioAssay AID485290 (National Center for Advancing Translational Sciences (NCATS), 2010).
# “And” between values parts separate entries of the source, which are not always exact repeats. Equal values may be shown once. Among all 350,000 compounds or so, about 990 (0.28%) were called active. The shares of active, inactive and inconclusive entries below differ from those in the screen. The call rests on the fitted dose curve; in most records, active means well fitted inhibition curve with a large enough effect; inconclusive means small, poorly fitted or top-dose-only effect; inactive means no such curve, though single readings can be large or run the other way. Potencies of inconclusive entries are doubtful fits and often do not repeat. Some structures have more than one record in an assay (separate samples or runs), and their calls can disagree.
# Target: Tyrosyl-DNA phosphodiesterase 1 (Homo sapiens) (UniProt Q9NUW8)
# Assay: qHTS Assay for Inhibitors of Tyrosyl-DNA Phosphodiesterase (TDP1); further: nearly all actives have a fitted effect of over 40% in size
# Settings: recombinant TDP1, AlphaScreen DNA substrate cleavage; activity change, negative = inhibition: at 130 µM (top of the series) unless noted
# How it was run: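 Tdp1 1 nM final; 15 min RT w/ cpd; substrate 15 nM, 5 min; beads 10 ug/ml, 10 min; AlphaScreen read. Neg ctrl: no enzyme.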
# On the % scale 0 is the no-effect control and ±100 the full control effect; potency means the concentration at half of the fitted maximal effect; tags describe the fitted curve by direction and shape.
# Chain of UniProt Q9NUW8 (Q9NUW8 whole entry, looked up): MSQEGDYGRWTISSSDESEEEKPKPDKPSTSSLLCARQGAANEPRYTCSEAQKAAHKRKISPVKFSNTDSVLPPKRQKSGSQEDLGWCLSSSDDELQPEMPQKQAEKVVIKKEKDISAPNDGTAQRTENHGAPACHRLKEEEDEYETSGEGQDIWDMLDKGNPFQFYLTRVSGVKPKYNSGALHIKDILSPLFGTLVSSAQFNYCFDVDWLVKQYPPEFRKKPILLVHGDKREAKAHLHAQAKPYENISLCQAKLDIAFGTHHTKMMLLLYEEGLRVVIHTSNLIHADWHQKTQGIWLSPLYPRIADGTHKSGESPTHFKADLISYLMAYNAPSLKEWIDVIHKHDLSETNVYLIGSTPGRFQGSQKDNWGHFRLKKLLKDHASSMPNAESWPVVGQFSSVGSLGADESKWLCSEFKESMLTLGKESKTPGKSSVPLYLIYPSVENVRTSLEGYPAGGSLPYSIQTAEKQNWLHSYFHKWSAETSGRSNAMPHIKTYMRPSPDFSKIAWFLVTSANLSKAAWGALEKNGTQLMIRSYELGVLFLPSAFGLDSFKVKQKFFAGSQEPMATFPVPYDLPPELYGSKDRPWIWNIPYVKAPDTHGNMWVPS
SMILES,Potency,"activity change, negative = inhibition"
COc1ccccc1NC(=O)C(Sc1ccccc1)c1ccccc1 (stereo not given),"inconclusive: 44.7 µM [inhibitor, single point]",–
O=C(Cc1csc(N2CCOCC2)n1)N/N=C/c1ccc(O)c(O)c1O,"inconclusive: 2.24 µM [inhibitor, full curve]",–
COc1ccc(-n2nc3c(=O)[nH][nH]c3cc2=O)cc1,active: 44.7 µM,–
O=C(CNC(=O)C1CCCCC1)OCCOc1ccccc1,–,inactive: 0.402%
CCSc1nnc(C)n1-c1ccc(C(=O)O)cc1,"inconclusive: 14.1 µM [inhibitor, partial curve]",–
Nc1ccc(S(=O)(=O)NCC(=O)OC2CCOC2=O)cc1[N+](=O)[O-] (stereo not given),active: 25.1 µM,–
CCC(=O)N(CC(=O)Nc1sc(C)c(C)c1C(N)=O)C1CCCC1,–,inactive: 5.26%
CCOC(=O)c1cc(-c2ccccc2)nc2c1c(C)nn2-c1ccccn1,–,inactive: 2.27%
CC(NC(=O)c1cccc(S(=O)(=O)N2CCN(C)CC2)c1)c1ccc(Cl)cc1Cl (stereo not given),"inconclusive: 100 µM [inhibitor, single point]",–
O=C(NN=C1CCCC1)c1ccccc1[N+](=O)[O-],active: 39.8 µM,–
COc1ccc(NC(=O)CCC(=O)OC(C(=O)c2ccccc2)c2ccccc2)cc1 (stereo not given),"inconclusive: 35.5 µM [inhibitor, single point]",–
Cn1nnc2c(N3CCN(c4ccc(F)cc4)CC3)ncnc21,–,inactive: -5.2%
O=C1CC(NCCc2ccccc2)C(=O)N1CCc1ccccc1 (stereo not given),–,inactive: 8.57%
CCc1ccc(C2CC(c3ccc(Cl)cc3)=NNC2=O)cc1 (stereo not given),–,inactive: 6.98%
Cc1cc(C=C(C#N)C#N)c(C)n1-c1ccccc1,–,inactive: -1.98%
Clc1ccc(-c2csc(N/N=C/c3cccnc3)n2)c(Cl)c1,active: 79.4 µM,–
COc1ccc(C(=O)COC(=O)CN2CC(=O)Oc3ccccc32)cc1Br,"inconclusive: 50.1 µM [inhibitor, partial curve]",–
Cc1cccc(NC(=O)CSc2nnc(-c3ccco3)c(-c3ccco3)n2)c1C,"inconclusive: 10 µM [inhibitor, full curve]",–
CCn1c(-c2c[nH]c3ccccc23)n[nH]c1=S,"inconclusive: 1.12 µM [inhibitor, full curve, poor fit]",–
CC(=O)C[C@H](O)CC(=O)[C@H]1OC(=O)CC/C=C\Cc2ccccc21,–,inactive: 1.76%
Cc1ccc2[nH]c(=O)c3cc(C(=O)N4CCN(C(=O)c5ccco5)CC4)sc3c2c1,active: 56.2 µM,–
CCOC(=O)CNC(=O)COc1coc(CN2CCN(Cc3ccccc3)CC2)cc1=O,–,inactive: -1.47%
Cc1nnc(SCC(=O)NC(=O)NCc2ccco2)n1Cc1ccccc1,active: 50.1 µM,–
COc1cn(-c2ccccc2)nc1C(=O)Nc1ccc(C)cc1Cl,"inconclusive: 89.1 µM [inhibitor, single point]",–
Cc1noc2ncnc(N3CCN(c4ccc(F)cc4)CC3)c12,–,inactive: -1.27%

SMILES,Potency,"activity change, negative = inhibition"
CCc1nc(NCCN2CCOCC2)c(C#N)c2c1CCCC2,–,inactive: 7.45%
CCOC(=O)C1=C(CS(=O)(=O)c2ccc(F)c(C)c2)NC(=O)NC1c1ccc(O)c(O)c1 (stereo not given),"inconclusive: 14.1 µM [inhibitor, partial curve]",–
CCCCc1nnc(NC(=O)CCS(=O)(=O)c2ccc(C)cc2)s1,–,inactive: -0.253%
O=C(CSc1nnc(-c2ccccc2O)o1)N1CCOCC1,"inconclusive: 50.1 µM [inhibitor, partial curve]",–
O=C1CC(NNc2ccccc2)C(=O)N1c1ccccc1 (stereo not given),–,inactive: 8.45%
Cc1ccc(S(=O)(=O)Cc2ccc(C(=O)O)o2)cc1,active: 39.8 µM,–
CCOC(=O)c1cccc(NC(=O)c2cc(S(=O)(=O)N3CCCC3)cn2C)c1,"inconclusive: 44.7 µM [inhibitor, single point]",–
O=C(N/N=C/c1ccco1)C1CC1c1ccccc1 (stereo not given),"inconclusive: 50.1 µM [inhibitor, partial curve]",–
CCCCN(CC)C(=O)c1c[nH]c2ccc(S(=O)(=O)Nc3cccc(OC)c3)cc2c1=O,"inconclusive: 79.4 µM [inhibitor, single point]",–
Cc1nc(NC(=O)CSc2nnc(Cn3nnc4ccccc43)n2C)sc1C,"inconclusive: 89.1 µM [inhibitor, single point]",–
CCC(=O)Nc1nc(=S)ss1,"inconclusive: 0.562 µM [inhibitor, full curve, poor fit]",–
COc1ccc(CNC(=O)C2=C(C)C(=O)OC23CCN(C(C)=O)CC3)cc1,–,inactive: 0%
Cc1cccc(Cn2cccc2CNS(=O)(=O)c2ccc(C)c(C)c2)c1,–,inactive: 11.2%
O=C(O)Cc1cc(F)c(S(=O)(=O)N2CCN(S(=O)(=O)c3ccc4c(c3)OCCO4)CC2)cc1F,"inconclusive: 79.4 µM [inhibitor, partial curve]",–
O=C(O)c1ccc2c(ccc3nn(-c4ccc(/C=C/c5ccc(-n6nc7ccc8cc(C(=O)O)ccc8c7n6)cc5[S+](=O)([O-])[O-])c([S+](=O)([O-])[O-])c4)nc32)c1,active: 2.51 µM,–
C=CCNc1nnc(-c2cccc3ccccc23)o1,"inconclusive: 44.7 µM [inhibitor, partial curve]",–
CC(=O)COC(=O)C1CCN(S(=O)(=O)c2cc([N+](=O)[O-])ccc2Cl)CC1,"inconclusive: 14.1 µM [inhibitor, partial curve]",–
COc1ccc(CCN2C(=O)CC(C(C)c3ccccc3)C2=O)cc1OC (stereo not given),–,inactive: 5%
Cc1ccc(OCCN2C(=O)C(=O)c3cc(C)ccc32)cc1,–,inactive: 7.19%
O=C1C=CC2=C3c4cc(O)c(O)cc4CC3(O)COC2=C1O (stereo not given),"inconclusive: 282 nM [inhibitor, full curve] and inconclusive: 56.2 nM [inhibitor, full curve]",–
O=C1N/C(=N/N=C/c2ccccc2O)SC1Cc1ccc(F)cc1 (stereo not given),"inconclusive: 35.5 µM [inhibitor, single point]",–
C=C(C)C(=O)Nc1ccc(OC(F)(F)C(F)F)c(NC(=O)C(=C)C)c1,active: 12.6 µM,–
Cc1ccc(S(=O)(=O)N2CCN(Cc3cc(=O)n4ccccc4n3)CC2)c(C)c1,–,inactive: 1.32%
CCOC(=O)c1sc(NC(=O)C2C3C=CC(C3)C2C(=O)O)nc1C (stereo not given),active: 79.4 µM,–
COC(Cc1n[nH]c(=S)n1-c1ccccc1)OC,"inconclusive: 5.01 µM [inhibitor, full curve]",–

SMILES,Potency,"activity change, negative = inhibition"
CCOC(=O)c1cc2c(=O)n3ccccc3nc2n(Cc2ccco2)c1=NC(=O)c1ccccc1OC,active: 79.4 µM,–
Cc1cc(=O)[nH]c(N=N/C(=N/Nc2ccc(O)cc2)c2ccccc2)n1,"inconclusive: 0.0112 µM [inhibitor, full curve, poor fit]",–
CC(=O)c1cccc(NC(=S)NC(=O)c2ccc(Cl)cc2)c1,–,inactive: 5.48%
Cc1cccc(NC(=O)CN2CCN(C(=O)c3ccc(OCc4cn5ccccc5n4)cc3)CC2)c1C,active: 44.7 µM,–
Cc1cc(C)nc(SCc2nc(N)nc(-c3ccccc3O)n2)n1,"inconclusive: 89.1 µM [inhibitor, single point]",–
Nc1ccc(Nc2ccccc2)c(S(=O)(=O)O)c1,active: 56.2 µM,–
CCCCOc1ccc(NC(=O)CN2CCN(C(=O)OCC)CC2)cc1,"inconclusive: 7.08 µM [inhibitor, partial curve]",–
CC(=O)c1c(C)oc(C)c1CSCc1ccc(C(=O)O)o1,"inconclusive: 31.6 µM [inhibitor, partial curve]",–
C=C(C(C)=O)C(O)/C=C/c1ccco1 (stereo not given),active: 11.2 µM,–
Cc1ccc(-c2nn(-c3ccccc3)cc2C(=O)O)o1,"inconclusive: 14.1 µM [inhibitor, full curve]",–
CCOC(=O)c1ccccc1NC(=S)N1CCC(C)CC1,"inconclusive: 44.7 µM [inhibitor, single point]",–
CCOC(=O)NC1(NCC(C)C)Oc2ccccc2O1,"inconclusive: 0.398 µM [inhibitor, full curve]",–
COc1ccc(/C=C2\C(=O)NC(=S)N2C(=O)c2ccc(C)cc2)cc1,"inconclusive: 12.6 µM [inhibitor, partial curve]",–
COc1cc(/C=N/N2C(=O)CSC2=S)cc(Br)c1O,"inconclusive: 10 µM [inhibitor, partial curve]",–
COC(=O)c1ccc(-n2c(/C=C/c3cc(OC)c(OC)c(OC)c3)nc3cc(Cl)ccc3c2=O)cc1,–,inactive: 5.2%
NNC(=O)c1cc(-c2ccccc2)sc1N,–,inactive: 8.22%
COC(=O)c1c(-c2ccc(SC)cc2)sc2ccccc12,"inconclusive: 14.1 µM [inhibitor, full curve]",–
COC(=O)c1ccc(NS(=O)(=O)c2cc(-c3cc(C)no3)ccc2OC)cc1,–,inactive: 3.08%
CCCCCCCOc1ccc(C2CC(=O)N(C)C2=O)cc1 (stereo not given),–,inactive: -11.9%
O=C(COC(=O)c1ccc(OC(F)(F)F)cc1)Nc1ncccn1,active: 22.4 µM,–
CCC(=O)N1CCc2cc(Br)cc(S(=O)(=O)CCC(=O)N(C)c3cccc(C)c3)c21,"inconclusive: 39.8 µM [inhibitor, single point]",–
O=C(NCCc1ccccc1)c1ccc(Cn2c(=O)c3cccn3c3cccnc32)cc1,"inconclusive: 79.4 µM [inhibitor, single point]",–
O=C(CN1CC(=O)Oc2ccccc21)OCC(=O)c1ccc(F)cc1,"inconclusive: 39.8 µM [inhibitor, full curve, poor fit]",–
COc1ccc(N2Cc3cccc(C(=O)Nc4ccc(C)cc4)c3C2=O)cc1,"inconclusive: 70.8 µM [inhibitor, single point]",–
Cc1c(O)ccc2c(O)c(NC(=O)c3ccc4c(c3)CCC(C)(C)O4)c(=O)oc12,"inconclusive: 28.2 µM [inhibitor, single point]",–
